Data on six molecules can be found in PMC3791464 (eLife, 2013).

No constants are given. Whether binding was seen depends on the method and setting. In cells and extracts the contact can be indirect. Some results given as binding are weak or reduced against the parent protein; the word gives no strength. For part of these data: Where a sequence is shown, tags or fusion partners need not be part of it.

For assay [1], the target named is T1, Drosophila Orc2, endogenous in fly ovaries (Drosophila (endogenous in fly ovaries)) (UniProt Q24168).
T1 sequence: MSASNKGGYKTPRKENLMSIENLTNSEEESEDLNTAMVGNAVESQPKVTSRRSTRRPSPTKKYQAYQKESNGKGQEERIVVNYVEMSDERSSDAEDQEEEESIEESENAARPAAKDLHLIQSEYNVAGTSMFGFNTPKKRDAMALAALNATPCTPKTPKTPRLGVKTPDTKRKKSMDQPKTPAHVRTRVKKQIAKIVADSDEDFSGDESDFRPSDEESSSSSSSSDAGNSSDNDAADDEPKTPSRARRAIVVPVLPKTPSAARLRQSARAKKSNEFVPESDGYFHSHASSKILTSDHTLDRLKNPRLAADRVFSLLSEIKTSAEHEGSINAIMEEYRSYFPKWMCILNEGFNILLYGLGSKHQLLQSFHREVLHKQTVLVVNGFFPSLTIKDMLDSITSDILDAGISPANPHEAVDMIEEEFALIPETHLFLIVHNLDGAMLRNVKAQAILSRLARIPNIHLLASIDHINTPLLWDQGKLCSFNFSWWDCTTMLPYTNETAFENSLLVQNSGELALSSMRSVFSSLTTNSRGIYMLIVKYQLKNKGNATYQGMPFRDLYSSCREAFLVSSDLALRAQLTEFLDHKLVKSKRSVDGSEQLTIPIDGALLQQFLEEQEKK
Nature of the assay: co-IP; fly ovary extract (high-salt extraction, diluted), rabbit polyclonal Orc2 antibodies on Protein A-Sepharose; Western blot with anti-GFP, anti-Orc3, anti-Orc5; GFP fluorescence of the beads also measured. A general note: Immunoblotting shows a protein as a band on a membrane.

For assay [2], the target named is T2, S. cerevisiae MBP–Orc1 (S. cerevisiae) (UniProt P54784).
T2 sequence: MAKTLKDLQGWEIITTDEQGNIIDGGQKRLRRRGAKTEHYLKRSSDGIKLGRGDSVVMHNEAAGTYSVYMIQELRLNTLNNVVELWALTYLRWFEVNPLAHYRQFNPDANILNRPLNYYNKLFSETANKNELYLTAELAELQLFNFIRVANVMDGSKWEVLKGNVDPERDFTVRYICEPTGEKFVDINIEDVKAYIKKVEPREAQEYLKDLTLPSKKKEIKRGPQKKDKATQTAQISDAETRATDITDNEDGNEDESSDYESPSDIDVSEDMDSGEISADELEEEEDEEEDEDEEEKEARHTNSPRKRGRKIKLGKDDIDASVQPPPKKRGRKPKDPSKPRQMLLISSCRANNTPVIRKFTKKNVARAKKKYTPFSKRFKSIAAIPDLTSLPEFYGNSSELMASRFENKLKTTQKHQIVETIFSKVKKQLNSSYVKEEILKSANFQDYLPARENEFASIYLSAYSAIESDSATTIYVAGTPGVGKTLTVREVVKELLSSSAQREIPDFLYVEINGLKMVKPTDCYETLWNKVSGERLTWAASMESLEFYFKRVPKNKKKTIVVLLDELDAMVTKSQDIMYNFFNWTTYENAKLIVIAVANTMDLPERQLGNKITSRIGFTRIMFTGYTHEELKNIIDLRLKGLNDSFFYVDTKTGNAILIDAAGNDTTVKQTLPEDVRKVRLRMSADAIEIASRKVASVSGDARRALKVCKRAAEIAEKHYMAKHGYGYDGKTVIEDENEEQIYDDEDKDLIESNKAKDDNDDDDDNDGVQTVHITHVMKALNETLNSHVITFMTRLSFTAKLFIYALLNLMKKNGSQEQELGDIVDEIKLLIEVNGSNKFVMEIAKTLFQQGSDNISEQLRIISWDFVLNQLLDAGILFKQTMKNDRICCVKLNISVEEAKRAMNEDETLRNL
Description: pull-down; N-terminally MBP-tagged bait and N-terminally 6×His-tagged prey (with further ORC subunits where named) co-expressed in High5 cells by baculovirus co-infection; clarified lysate (50 mM Tris HCl pH 7.8, 300 mM KCl, 10% glycerol, 1 mM DTT; 0.78 M ammonium sulfate step) on amylose beads, three washes; Coomassie-stained SDS-PAGE, anti-His Western blot for some preys.

Assay [3] addresses T3, S. cerevisiae MBP–Orc3 (S. cerevisiae) (UniProt P54790).
T3 sequence: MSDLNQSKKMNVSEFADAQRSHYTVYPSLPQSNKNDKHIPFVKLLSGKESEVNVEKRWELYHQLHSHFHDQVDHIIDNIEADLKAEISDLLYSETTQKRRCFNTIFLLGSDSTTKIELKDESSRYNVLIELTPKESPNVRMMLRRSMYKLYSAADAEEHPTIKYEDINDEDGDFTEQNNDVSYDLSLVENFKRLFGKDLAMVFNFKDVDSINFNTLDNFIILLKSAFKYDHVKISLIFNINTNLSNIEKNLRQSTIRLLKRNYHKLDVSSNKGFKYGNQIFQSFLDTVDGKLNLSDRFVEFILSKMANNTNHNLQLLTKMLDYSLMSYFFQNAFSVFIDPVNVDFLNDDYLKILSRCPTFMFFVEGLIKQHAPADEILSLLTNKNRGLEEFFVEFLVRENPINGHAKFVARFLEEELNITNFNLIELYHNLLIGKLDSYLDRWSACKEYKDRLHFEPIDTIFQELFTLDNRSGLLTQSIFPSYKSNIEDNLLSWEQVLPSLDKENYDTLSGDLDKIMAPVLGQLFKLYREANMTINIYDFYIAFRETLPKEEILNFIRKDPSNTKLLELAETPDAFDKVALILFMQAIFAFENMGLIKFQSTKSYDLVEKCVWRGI
The description is as above.

B1: Drosophila Orc3 in untagged recombinant ORC (natural protein, Drosophila melanogaster, UniProt Q7K2L1 1-721, looked up)
chain: MDPTISVSKGCFVYKNGATRAGKKAASKRKRPAAESSSLLGKEVVQQPFYEEYRKAWNQINDHIADLQHRSYARTLEQLVDFVVGQAERDTPDEVLPTAALLTGINQPDHLSQFTALTQRLHAQRAAMVCVLQSRDCATLKAAVETLVFGLVEDNAEVEQMEDEDEDEDGAERDRKRLRRSQCTMKQLKSWYTNNFDSEQKRRQLVVILPDFECFNASVLQDLILILSAHCGSLPFVLVLGVATAMTAVHGTLPYHVSSKIRLRVFQTQAAPTGLNEVLDKVLLSPKYAFHLSGKTFKFLTHIFLYYDFSIHGFIQGFKYCLMEHFFGGNAFALCTDYSKALGRIKQLTHEDMETIRRLPSFRPYVEQINDCKRIIAVLTDDDYLKKKLPQLLRDCLLHFLLFRCSLEFLTELVGDLPRCPLGKLRRELYVNCLNRAIISTPEYKECLQMLSFLSKDEFVAKVNRALERTEQFLVEEIAPLELGEACTAVLRPKLEAIRLAVDEVVKATMATITTTSPNETRQATDHLTPVASRQELKDQLLQRSKEDKMRHQLNTPTTQFGRALQKTLQLIETQIVQDHLRALQDAPPIHELFVFSDIATVRRNIIGAPRAALHTALNNPHFYMQCKCCELQDQSLLVGTLPDLSVVYKLHLECGRMINLFDWLQAFRSVVSDSDHEEVAQEQIDPQIQARFTRAVAELQFLGYIKMSKRKTDHATRLTW
notes: Drosophila Orc3, no purification tag; source: High5 cells co-infected with six baculoviruses, co-purified (Ni, amylose, TEV, gel filtration)
Regarding B1, the binding entry in assay [1] was “binds”.

B2: S. cerevisiae Orc4 co-expressed with the other ORC subunits (protein, UniProt P54791 1-529)
chain: MTISEARLSPQVNLLPIKRHSNEEVEETAAILKKRTIDNEKCKDSDPGFGSLQRRLLQQLYGTLPTDEKIIFTYLQDCQQEIDRIIKQSIIQKESHSVILVGPRQSYKTYLLDYELSLLQQSYKEQFITIRLNGFIHSEQTAINGIATQLEQQLQKIHGSEEKIDDTSLETISSGSLTEVFEKILLLLDSTTKTRNEDSGEVDRESITKITVVFIFDEIDTFAGPVRQTLLYNLFDMVEHSRVPVCIFGCTTKLNILEYLEKRVKSRFSQRVIYMPQIQNLDDMVDAVRNLLTVRSEISPWVSQWNETLEKELSDPRSNLNRHIRMNFETFRSLPTLKNSIIPLVATSKNFGSLCTAIKSCSFLDIYNKNQLSNNLTGRLQSLSDLELAILISAARVALRAKDGSFNFNLAYAEYEKMIKAINSRIPTVAPTTNVGTGQSTFSIDNTIKLWLKKDVKNVWENLVQLDFFTEKSAVGLRDNATAAFYASNYQFQGTMIPFDLRSYQMQIILQELRRIIPKSNMYYSWTQL
As for B2, the binding result in assay [2] is given as “binds”.

B3: S. cerevisiae Orc2, His-tagged (protein, UniProt P32833 1-620)
chain: MLNGEDFVEHNDILSSPAKSRNVTPKRVDPHGERQLRRIHSSKKNLLERISLVGNERKNTSPDPALKPKTPSKAPRKRGRPRKIQEELTDRIKKDEKDTISSKKKRKLDKDTSGNVNEESKTSNNKQVMEKTGIKEKREREKIQVATTTYEDNVTPQTDDNFVSNSPEPPEPATPSKKSLTTNHDFTSPLKQIIMNNLKEYKDSTSPGKLTLSRNFTPTPVPKNKKLYQTSETKSASSFLDTFEGYFDQRKIVRTNAKSRHTMSMAPDVTREEFSLVSNFFNENFQKRPRQKLFEIQKKMFPQYWFELTQGFSLLFYGVGSKRNFLEEFAIDYLSPKIAYSQLAYENELQQNKPVNSIPCLILNGYNPSCNYRDVFKEITDLLVPAELTRSETKYWGNHVILQIQKMIDFYKNQPLDIKLILVVHNLDGPSIRKNTFQTMLSFLSVIRQIAIVASTDHIYAPLLWDNMKAQNYNFVFHDISNFEPSTVESTFQDVMKMGKSDTSSGAEGAKYVLQSLTVNSKKMYKLLIETQMQNMGNLSANTGPKRGTQRTGVELKLFNHLCAADFIASNEIALRSMLREFIEHKMANITKNNSGMEIIWVPYTYAELEKLLKTVLNTL
With B3, the binding entry in assay [3] is listed as “binds”.

B4: Drosophila Orc5 in untagged recombinant ORC (natural protein, Drosophila melanogaster, UniProt Q24169 1-460, looked up)
chain: MEAICSSLEPLFPCREAAIETLGELIGDSSETYPSAIYLFGHSGTGKTALTRAFLKECGKRQNVRTAHLNAIECYTTKIMLEILLDSLAPDQGDALKVDNMLDFVEQLRRQAATRVEDQGFLIAVDNAERLRDMDANVLPVLLRLQELTNLNLCVILLSQLPFEKFYNKTGLSEIVCLHLAQYNKAETQRILGSDFQQVRNQLLEQFAQDKKRLEICQEAVTEDFYNNYLNLFLSVFYKACRDVPELQLTARKCLSTYLEPVLDGTVDATDISRLWRHIAGPLRSALTQIYMRIEKPAEEVEDFTAIEDQSVRKLAQSLELPYYAKFLLIAAFLASHNAAKQDKRLFVKHHGKQRKRMQTVNARAKTTEKMSTTLGPKSFSIDRLLAIFYAILEEKVGLTCNLLSQISTLVHLNLLSFVSGEQNIMEGSARLQCTIGLEFVLQIGKVVGFNVRQYLCDFM
notes: Drosophila Orc5; the methods list Orc4 twice and leave Orc5 out of the untagged subunits; source: High5 cells co-infected with six baculoviruses, co-purified (Ni, amylose, TEV, gel filtration)
In the case of B4, the binding entry in assay [1] is given as “binds”.

B5: S. cerevisiae Orc3 co-expressed with the other ORC subunits (protein, UniProt P54790 1-616)
chain: MSDLNQSKKMNVSEFADAQRSHYTVYPSLPQSNKNDKHIPFVKLLSGKESEVNVEKRWELYHQLHSHFHDQVDHIIDNIEADLKAEISDLLYSETTQKRRCFNTIFLLGSDSTTKIELKDESSRYNVLIELTPKESPNVRMMLRRSMYKLYSAADAEEHPTIKYEDINDEDGDFTEQNNDVSYDLSLVENFKRLFGKDLAMVFNFKDVDSINFNTLDNFIILLKSAFKYDHVKISLIFNINTNLSNIEKNLRQSTIRLLKRNYHKLDVSSNKGFKYGNQIFQSFLDTVDGKLNLSDRFVEFILSKMANNTNHNLQLLTKMLDYSLMSYFFQNAFSVFIDPVNVDFLNDDYLKILSRCPTFMFFVEGLIKQHAPADEILSLLTNKNRGLEEFFVEFLVRENPINGHAKFVARFLEEELNITNFNLIELYHNLLIGKLDSYLDRWSACKEYKDRLHFEPIDTIFQELFTLDNRSGLLTQSIFPSYKSNIEDNLLSWEQVLPSLDKENYDTLSGDLDKIMAPVLGQLFKLYREANMTINIYDFYIAFRETLPKEEILNFIRKDPSNTKLLELAETPDAFDKVALILFMQAIFAFENMGLIKFQSTKSYDLVEKCVWRGI
Regarding B5, in assay [2], the binding result is “binds”.

B6: S. cerevisiae Orc5 co-expressed with the other ORC subunits (protein, UniProt P50874 1-479)
chain: MNVTTPEVAFREYQTNCLASYISADPDITPSNLILQGYSGTGKTYTLKKYFNANPNLHAVWLEPVELVSWKPLLQAIARTVQYKLKTLYPNIPTTDYDPLQVEEPFLLVKTLHNIFVQYESLQEKTCLFLILDGFDSLQDLDAALFNKYIKLNELLPKDSKINIKFIYTMLETSFLQRYSTHCIPTVMFPRYNVDEVSTILVMSRCGELMEDSCLRKRIIEEQITDCTDDQFQNVAANFIHLIVQAFHSYTGNDIFALNDLIDFKWPKYVSRITKENIFEPLALYKSAIKLFLSTDDNLSENGQGESAITTNRDDLENSQTYDLSIISKYLLIASYICSYLEPRYDASIFSRKTRIIQGRAAYGRRKKKEVNPRYLQPSLFAIERLLAIFQAIFPIQGKAESGSLSALREESLMKANIEVFQNLSELHTLKLIATTMNKNIDYLSPKVRWKVNVPWEIIKEISESVHFNISDYFSDIHE
For the molecule B6, in assay [2], the binding entry was “binds”.
